# Laboratory results published in PubChem BioAssay AID1347434 (National Center for Advancing Translational Sciences (NCATS), 2020).
# “And” between values parts separate entries of the source, which are not always exact repeats. Identical values can stand only once. The campaign covered roughly 1,200 compounds. About 30 (2%) were called active. Inconclusive results, whose numbers are uncertain, are shown with a selection of clear calls. Calls come from the whole dose curve; as a rule, active = well fitted inhibition curve with a large enough effect; inconclusive = small, poorly fitted or top-dose-only effect; inactive = flat fitted curve, though single readings scatter. Potencies of inconclusive entries are doubtful fits and often do not repeat.
# Target: Single-stranded DNA cytosine deaminase (Homo sapiens) (UniProt Q9GZX7)
# Assay: Confirmatory qHTS assay for inhibitors of Activation Induced Cytidine Deaminase (AID): AID signals
# Conditions: recombinant AID, FRET deamination/UDG coupled fluorescence, 4 h; series mostly up to 115 µM
# Description: Assay Provider (PI) Patricia Gearhart Ph.D. National Institute on Aging National Institute of Health (NIH), Bethesda, MD Assay Provider (PI) Rahul Kohli Ph.D. Perelman School of Medicine University of Pennsylvania, Philadelphia, PA Activation-Induced Deaminase (AID) is a cytosine deaminase which converts cytosine into uracil within stretches of ssDNA. The presence of uracil in DNA initiates a cascade of mutagenic DNA repair to introduce point mutations and DNA double strand breaks. Specific targeting of AID to the immunoglobulin heavy chain loci (Igh) promotes mutagenesis in the antibody variable region for somatic hypermutation (SHM) or switch regions leading to class switch recombination (CSR). However, AID also plays a role in accumulating unnecessary mutations across the genome. Mis-targeting of AID results in the initiation of tumor development and leads to greater drug resistance among cancer cells when continually expressed. To identify an AID inhibitor, a small molecule library will be screened in collaboration with NCATS core facility at NIH. To confirm biological function, inhibitors will be examined in an in vitro murine B-cell activation assay and subsequent secondary validation screens. Top molecules will be further screened to identify inhibitory efficacy against a wild type primary splenocytes assay. Using these approaches, we hope to identify a small molecule with great efficacy and low toxicity for use as a molecular probe to further characterize AID's intricacies, or even as a therapeutic. A FRET based analysis of cytosine deamination, was developed to identify potential inhibitors of AID catalytic activity. This screen has two signal output, Read 1 evaluates the AID inhibition response. The second readout (Read 2) evaluates UDG response and is uses as a counterscreen to exclude false positive inhibitors. Inhibition in AID and inactivity in the UDG signal is the desired outcome for this assay.
# PROTOCOL TABLE SEQUENCE No. (e.g., 1, 2, 3, etc.); […] (e.g., Cells, Incubation, Reagent, etc.); VALUE; DESCRIPTION 1a; Reagent; 3 uL; [4/3x] 1 uM AID/2.67 U/mL UDG 1b; Reagent; 3 uL; 2 U/mL UDG 1c; Reagent; 3 uL; 1 uM AID 2a; Compound; 46 nL; Follow-up plates (0.64 uM - 10 mM) 2b; Control; 46 nL; ATA (16.4 nM - 10 mM) 3; Time; 10 min; incubation at room temperature 4; Reagents; 1 uL; [4x] 250 nM DJC20 / 250 nM DJC23 [Substrate] 5; Time; 4 hr; incubation at room temperature 6; Reagent; 4 uL; [2x] 250 mM NaOH 7; Time; 15 sec; centrifuge at 1000 rpm 8; Time; 30 min; incubation at room temperature 9a; Detection; fluorescence (Read 1: AID); EnVision (PerkinElmer) plate reader, 540 excitation and 590 emission filters 9b; Detection; fluorescence (Read 2: UDG); EnVision (PerkinElmer) plate reader, 560 excitation and 665 emission filters NOTES (numbers refer to sequence above) 1a; Reagents were dispensed in a medium-binding black solid-bottom Greiner plates (789176F) using a BioRptr liquid dispenser. Dispense 3 uL of [4/3x] 1 uM AID (provided by Kohli lab) and [4/3x] 2 U/mL UDG (NEB M0280L) into columns 1, 2, 5 to 48. 1b; Dispense 3 uL of [4/3x] 2 U/mL UDG into column 3. 1c; Dispense 3 uL of [4/3x] 1 uM AID into column 4. 2a; Compound ([…] [uM]: 0.64; 3.2; 16; 80; 400; 2,000; 10,000; 20,000) double pin-transferred (Dip Factor = 2) using the Kalypsys (Wako USA) pintool equipped with a 1536 pinhead for a final concentration range of 7.32 nM - 114 uM. 2b; 10 mM Aurintricarboxylic Acid (Sigma A1895) (ATA, 8-point, n = 2, 1:2.5 dilution in column 2) double pin-transferred (Dip Factor = 2) using the Kalypsys (Wako USA) pintool equipped with a 1536 pinhead for a [final] range of 186 nM - 114 uM. 3; Room temperature incubation. 4; Dispense 1 uL of substrate mixture from the Kohli lab [4x] […] DJC20 and [4x] 250 nM DJC23 into columns 1 to 48 . 5; Room temperature incubation. 6; Dispense 4 uL of […] [2x] 250 mM NaOH into columns 1 to 48. 7; Centrifugation step to remove bubbles. […]
# Potency is the fitted concentration of half-maximal effect; tags give direction and shape of the fitted curve.
# UniProt Q9GZX7, sequence (Q9GZX7 whole entry, looked up): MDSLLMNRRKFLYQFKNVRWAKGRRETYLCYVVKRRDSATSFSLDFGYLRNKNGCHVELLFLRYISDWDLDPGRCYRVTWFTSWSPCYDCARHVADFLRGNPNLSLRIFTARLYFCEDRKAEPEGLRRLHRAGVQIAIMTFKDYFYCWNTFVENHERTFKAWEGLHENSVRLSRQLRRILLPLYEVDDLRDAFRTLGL
row,SMILES,Potency
1,Cc1ccc(C)c(-n2c(CCC(=O)O)ccc2-c2ccc(Cl)cc2)c1,"inconclusive: 31.6 µM [inhibitor, single point]"
2,Cc1cc2oc(=O)c(CC(=O)O)c(C)c2c2occ(-c3ccc(F)cc3)c12,"inconclusive: 22.4 µM [inhibitor, partial curve, poor fit]"
3,CCCCCCCCc1ccc(-c2ccc(C(=O)O)cc2)cc1,"inconclusive: 44.7 µM [inhibitor, single point] and active: 35.5 µM"
4,Cc1nc2nc(NC(=O)c3ccc(Cl)cc3)[nH]n2c(=O)c1Cc1ccccc1,"inconclusive: 39.8 µM [inhibitor, partial curve]"
5,Cc1nc2ccccc2n1CCc1nc2c3ccccc3nc(SCC(=O)Nc3ccc(C(C)C)cc3)n2n1,"inconclusive: 28.2 µM [inhibitor, partial curve]"
6,CCCCn1c(-c2ccc(C)cc2)c(C)n2c3c(=O)n(C)c(=O)n(C)c3nc12,"inconclusive: 39.8 µM [inhibitor, partial curve]"
7,CCOc1ccccc1CNC(=O)c1cnc2sc(N3CCCCCC3)nn2c1=O,"inconclusive: 31.6 µM [inhibitor, partial curve]"
8,CCOc1ccc(C(=O)c2cn(Cc3ccccc3OC)c3ccc(F)cc3c2=O)cc1,"inconclusive: 8.91 µM [inhibitor, partial curve, poor fit]"
9,Cc1ccc2c(C)c(C(=O)N(Cc3ccc(Cl)cc3)C3CCS(=O)(=O)C3)oc2c1 (configuration not stated),"inconclusive: 20 µM [inhibitor, partial curve, poor fit]"
10,CC1CCN(S(=O)(=O)c2cn(CC(=O)Nc3cccc(C(F)(F)F)c3)c(=O)c3ccccc23)CC1,"inconclusive: 5.62 µM [inhibitor, partial curve, poor fit]"
11,COc1ccccc1NC(=O)c1cc2cc3ccc(OC)c(Cl)c3nc2s1,"inconclusive: 22.4 µM [inhibitor, partial curve]"
12,CCC1CCCCN1CCCNC(=O)c1ccc2c(c1)N(Cc1cccc(Cl)c1)C(=O)c1ccccc1S2(=O)=O (configuration not stated),"inconclusive: 35.5 µM [inhibitor, single point]"
13,CCCCNC(=O)c1cnn2c(C)c(Cc3c(C)cc(C)cc3C)c(C)nc12,"inconclusive: 39.8 µM [inhibitor, partial curve]"
14,COC(=O)c1ccc(OCC2c3cc(OC)c(OC)cc3CCN2C(=O)c2cccc(C)c2)cc1 (configuration not stated),inactive
15,Cc1oc(-c2cccc(Br)c2)nc1Cn1c(SCc2cccc(F)c2)nc2cccnc21,inactive
16,COc1cc(NC(=O)CSc2nc3nc(C)c(Cc4ccc(C)cc4)c(C)n3n2)cc(OC)c1OC,"inconclusive: 25.1 µM [inhibitor, partial curve, poor fit]"
17,Cc1ccc(Cl)cc1Nc1nn2c(=O)c3ccc(C(=O)NCc4cccs4)cc3nc2s1,"inconclusive: 39.8 µM [inhibitor, single point]"
18,Cc1nc2nc(SCC(=O)NCc3ccccc3)nn2c(C)c1Cc1ccccc1Cl,inactive
19,COc1ccc(-c2nc3nc(C)cc(Nc4ccc(C(C)=O)cc4)n3n2)cc1,"inconclusive: 28.2 µM [inhibitor, single point]"

row,SMILES,Potency
1,Cc1ccc2nc(NS(=O)(=O)c3ccc(Cl)cc3)c(Nc3ccc(C(=O)O)cc3)nc2c1,"inconclusive: 31.6 µM [inhibitor, single point]"
2,CCn1cc2nc(SCc3cccc(C(F)(F)F)c3)n(Cc3ccc(C)cc3)c(=O)c2n1,"inconclusive: 15.8 µM [inhibitor, partial curve, poor fit]"
3,Cc1nc2nc(NC(=O)c3cccc(Cl)c3)[nH]n2c(=O)c1Cc1ccccc1,"inconclusive: 44.7 µM [inhibitor, partial curve]"
4,COc1ccc(-c2nc3c(c(SCC(=O)Nc4ccc(C(=O)O)cc4)n2)Cc2ccccc2O3)cc1,inactive
5,Cc1oc(-c2ccccc2Cl)nc1CS(=O)(=O)CC(=O)NC(C)CCc1ccccc1 (configuration not stated),"inconclusive: 17.8 µM [inhibitor, partial curve, poor fit]"
6,CCOC(=O)c1cnc2c(Cl)cc(Cl)cc2c1Nc1cc(C(=O)O)ccc1C,"inconclusive: 31.6 µM [inhibitor, partial curve]"
7,Cc1ccccc1Cc1c(C)nc2nc(SCC(=O)N(C)c3ccccc3)nn2c1C,"inconclusive: 35.5 µM [inhibitor, partial curve]"
8,CCc1cnc2c(c1SCc1ccccc1C)c(=O)n(C)c(=O)n2C,inactive
9,Cc1nnc2c3ccccc3nc(N3CCN(c4cccc(Cl)c4)CC3)n12,"inconclusive: 35.5 µM [inhibitor, single point]"
10,CCN(C(=O)CSc1nc(-c2ccccc2)no1)c1cccc(C)c1,inactive
11,Cc1ccc(C)c(N2CCN(CCCNC(=O)c3cnn(-c4cccc(Cl)c4)c3C3CCN(C(=O)OC(C)(C)C)CC3)CC2)c1,"inconclusive: 35.5 µM [inhibitor, single point]"
12,Cc1ccc(C)c(N2CCN(C(=O)c3ccc(CS(=O)(=O)c4ccc(Br)cc4)o3)CC2)c1,inactive
13,O=C(c1ccc2c(Cl)c3c(nc2c1)CCCC3)N1CCN(c2ccccc2F)CC1,"inconclusive: 20 µM [inhibitor, partial curve]"
14,O=C(C1CCC(Cn2c(=O)c3sccc3n(Cc3ccccc3F)c2=O)CC1)N1CCCCC1 (configuration not stated),"inconclusive: 15.8 µM [inhibitor, partial curve]"
15,COc1ccc(C(=O)Oc2ccc(C(c3c(C)[nH][nH]c3=O)c3c(C)[nH][nH]c3=O)cc2OC)cc1,"inconclusive: 31.6 µM [inhibitor, single point]"
16,CCc1c(C)nc2nc(-c3ccccc3)nn2c1NCc1ccc(C)cc1,"inconclusive: 31.6 µM [inhibitor, single point]"
17,Cc1ccc(Cn2cc(S(=O)(=O)c3ccc(C)cc3)c(=O)c3cc(F)c(N4CCCC4)cc32)cc1,inactive
18,Cc1nc2c(C(=O)NCCc3ccc(Cl)cc3)cnn2c(C)c1Cc1ccc(F)cc1,"inconclusive: 39.8 µM [inhibitor, partial curve]"
